# The campaign covered roughly 360,000 compounds. About 740 (0.21%) were called active. The inconclusive results got no clear call from the source; some entries with a clear call stand among them for comparison. The call rests on the fitted dose curve; in most records, active means well fitted inhibition curve with a large enough effect; inconclusive means small, poorly fitted or top-dose-only effect; inactive means no such curve, though single readings can be large or run the other way. No potency is given beside an inconclusive call; the fits are too rough.
# System: Plasmodium falciparum AMA1 (3D7) - RON2 peptide interaction
# Test: qHTS for Inhibitors of AMA1-RON; Towards Development of Antimalarial Drug Lead: Primary Screen; further: nearly all actives have a fitted effect of over 45% in size;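 on activity change, negative = inhibition: 0% = vehicle wells and -100% = peptide control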
# Conditions: AlphaScreen AMA1-biotinylated RON2 peptide binding; activity change, negative = inhibition: at 58.2 µM (top of the series) unless noted
# How it was run: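 AMA1 (3D7) with his tag at 25 nM final met compounds first, then biotinylated RON2 peptide at 25 nM; detection used donor plus acceptor beads, 10 µg/mL apiece, read by AlphaScreen after 30 min at room temperature.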
# Potency means the concentration at half of the fitted maximal effect; tags describe the fitted curve by direction and shape.
SMILES,Potency,"activity change, negative = inhibition"
COc1cc2c(cc1OC)CN(c1ccc(F)cc1[N+](=O)[O-])CC2,"inconclusive [inhibitor, partial curve]",–
O=S(=O)(c1ccc(NC(=S)NN=Cc2ccccc2O)cc1)N1CCCCC1,inactive,–
O=C(NCCc1ccc(F)cc1)c1cccs1,inactive,–
COC(=O)c1cc(OC)c(OC)cc1NC(=O)c1ccco1,inactive,–
CC(C)CC(NC(=O)COc1ccccc1)C(=O)O (configuration not stated),inactive,–
Cc1cccc(CNC(=O)c2ccc3c(c2)N(C)CCS3)c1,"inconclusive [inhibitor, single point]",–
O=C(O)c1oc2ccccc2c1-n1cccc1,"inconclusive [inhibitor, single point]",–
CSc1ccc(CN2CCN(C(=O)c3ccc([N+](=O)[O-])cc3)CC2)cc1,"inconclusive [inhibitor, single point]",–
CN1C(=O)C(=O)/C(=C(/O)c2ccccc2)C1c1ccc(Br)cc1 (configuration not stated),inactive,–
Brc1ccc(-c2csc3ncnc(-n4nnc5ccccc54)c23)cc1,"inconclusive [inhibitor, partial curve, poor fit]",–
O=C(CCCc1ccccc1)NCCCc1ccccc1,"inconclusive [inhibitor, full curve, poor fit]",–
Cc1ccc2c(c1)-c1c(ssc1=S)C(C)(C)N2C(=O)CSC1=NCCS1,"inconclusive [inhibitor, partial curve]",–
C=CCN(c1ccccc1)S(=O)(=O)c1cccc(C(=O)Nc2ccc(N3CCOCC3)cc2)c1,"inconclusive [inhibitor, partial curve]",–
Cc1cc(C)c2c(c1)NC(c1cc3c(cc1Br)OCO3)C1CC=CC21 (configuration not stated),"inconclusive [inhibitor, partial curve]",–
CC(C)n1cnc2c(NCc3ccccc3)cc(OCC3CCN(C)CC3)cc21,"inconclusive [inhibitor, single point]",–
COc1ccccc1/C=C1\SC(=S)N(CCC(=O)N2CCN(C)CC2)C1=O,"inconclusive [inhibitor, single point]",–
CCNC(=S)N=Nc1c(O)n(Cc2ccc(Cl)cc2)c2ccccc12,inactive,–
COc1cc2sc(-c3ccccc3OC)c(-c3ccc(OCCN4CCCCC4)cc3)c2cc1OC,"inconclusive [inhibitor, partial curve]",–
CCc1ccc(Nc2c([N+](=O)[O-])c(=O)oc3ccccc23)cc1,"inconclusive [inhibitor, partial curve]",–
O=C(c1ccc(Br)o1)N(Cc1ccccc1)c1ccccn1,"inconclusive [inhibitor, single point]",–
Oc1ccc(C[C@H]2NCCc3cc(O)c(O)cc32)cc1O,active: 2.51 µM,–
COc1ccc(N2CCN(C(=O)c3oc4ccccc4c3NC(=O)CCc3cc(OC)no3)CC2)cc1,"inconclusive [inhibitor, single point]",–
CC1COC(c2cccn2Cc2ccccc2Cl)=N1 (configuration not stated),"inconclusive [inhibitor, partial curve]",–

SMILES,Potency,"activity change, negative = inhibition"
CN(C)c1ccc(-c2csc(C(O)c3cccc(Cl)c3)n2)cc1 (configuration not stated),"inconclusive [inhibitor, partial curve]",–
CC(NCc1ccc2c(c1)OCO2)C(=O)N1CCc2ccccc21 (configuration not stated),"inconclusive [inhibitor, partial curve, poor fit]",–
Cc1ccc(C)c(N2CCN(C(=O)CCC(=O)N3CCOc4ccc(Cl)cc43)CC2)c1,inactive,–
Cc1cc2c(cc1C)N(C(=O)CSc1nncn1C)C(C)(C)c1ssc(=S)c1-2,"inconclusive [inhibitor, partial curve]",–
Cc1cnc(C(=O)OCC(=O)c2c(N)n(CC(C)C)c(=O)n(C)c2=O)cn1,inactive,–
CCOC(=O)c1cc(C)n(-c2ccc(Cl)cc2)c1C,"inconclusive [inhibitor, partial curve]",–
CCC(=O)OC1(C)C(=O)C=C2C=C(c3ccsc3)OC=C2C1=O (configuration not stated),"inconclusive [inhibitor, single point]",–
COC(=O)C(NS(=O)(=O)c1ccccc1Cl)c1ccccc1 (configuration not stated),"inconclusive [inhibitor, partial curve]",–
COc1ccc(CNc2ccc3c(c2)ncn3-c2ccccc2OC)cc1,"inconclusive [inhibitor, single point]",–
CCCOc1ccc(N)cc1N,"inconclusive [inhibitor, single point]",–
O=C(CCSc1nc(-c2ccccc2)c(-c2ccccc2)o1)N1CCCCC1,"inconclusive [inhibitor, single point]",–
CCOc1ccc(S(=O)(=O)N2CCN(c3ccc(OC)cc3)CC2)c2cccnc12,"inconclusive [inhibitor, single point]",–
Cc1cccc(-n2ncc3c(NC(C)C)ncnc32)c1,inactive,–
CCOC(=O)c1sc(N(Cc2ccccc2)C(=O)COC(=O)c2ccccc2O)nc1C,inactive,–
O=C(c1ccccc1)N(Nc1ccccc1)c1ccccc1,"inconclusive [inhibitor, partial curve]",–
N#CC(C#N)=C/C(C#N)=C(/N)N1CCN(c2ccc(Cl)cc2)CC1,inactive,–
Cc1ccc(NC(=O)COc2nsnc2N2CCOCC2)cc1Cl,"inconclusive [inhibitor, single point]",–
COc1ccccc1NC(=O)Nc1nn(C)c2cccc(N(C)C)c12,"inconclusive [inhibitor, partial curve]",–
CCOc1cc(OCC)cc(C(=O)N2CCC[C@H]2C(=O)N2CCC[C@H]2C(=O)N[C@@H](C)c2ccccc2)c1,inactive,–
O=C(Nc1ccc(Nc2ccccc2)cc1)c1ccc(Cl)cc1Cl,"inconclusive [inhibitor, single point]",–
CN(CCOc1ccc(Cl)cc1)C(=O)Cc1ccc(S(=O)(=O)N2CCOCC2)s1,"inconclusive [inhibitor, partial curve]",–
Cc1ccc(NC(=O)C(C)N=C2NS(=O)(=O)c3ccccc32)cc1 (configuration not stated),–,inconclusive: -19.8% [inhibitor]
CCOC(=O)[C@]12CCCC=C1N(Cc1ccc3c(c1)OCO3)C(=O)[C@H](CC(=O)N1CCOCC1)C2,inactive,–

SMILES,Potency,"activity change, negative = inhibition"
Cc1cc(C)c2c(c1)NC(C(=O)O)C1CC=CC21 (configuration not stated),"inconclusive [inhibitor, single point]",–
CCOc1ccc(NC(=S)N(CCCN2CCOCC2)Cc2cn(C)c3ccccc23)cc1,"inconclusive [inhibitor, partial curve, poor fit]",–
Cc1ccc(/C=N/N2CCN(C3c4ccccc4-c4ccccc43)CC2)o1,"inconclusive [inhibitor, partial curve]",–
CCOC(=O)c1cc2occc2n1Cc1c(F)cccc1Cl,"inconclusive [inhibitor, single point]",–
Cc1cc([N+](=O)[O-])c(NC2CCCCC2)c([N+](=O)[O-])c1,"inconclusive [inhibitor, partial curve]",–
O=C(Nc1ccc2c(c1)OCCO2)C(c1cc2ccccc2o1)N1CCN(C/C=C/c2ccccc2)CC1 (configuration not stated),"inconclusive [inhibitor, partial curve]",–
CC1=NN(c2ccccc2)C(=O)/C1=C\c1ccc(Br)s1,"inconclusive [inhibitor, single point]",–
CN(C)c1ccc(-c2ccnc3c2CC(C)(C(=O)NCc2ccc(F)c(F)c2)O3)cc1 (configuration not stated),"inconclusive [inhibitor, partial curve]",–
CC1CCN(CCOCCOc2ccccc2-c2ccccc2)CC1,"inconclusive [inhibitor, partial curve]",–
Cc1ccc(OCC(=O)N2CCN(c3ccc([N+](=O)[O-])c(N4CCOCC4)c3)CC2)cc1,"inconclusive [inhibitor, partial curve, poor fit]",–
COc1cccc(OCCn2cc(C=O)c3ccccc32)c1,inactive,–
Cc1ccc(-n2c(SCC(=O)Nc3cccc(S(=O)(=O)NC4=NCCCCC4)c3)nc3ccccc3c2=O)cc1,inactive,–
O=C(O)COc1ccccc1/C=N/Nc1ccc(S(=O)(=O)Nc2ccc(Cl)cc2)cc1[N+](=O)[O-],"inconclusive [inhibitor, single point]",–
Cc1ccc(-c2nc3ncccn3c2Nc2ccc3c(c2)OCCO3)cc1,inactive,–
O=C1NC(=O)N(c2ccccc2)C(=O)/C1=C\c1ccccc1[N+](=O)[O-],"inconclusive [inhibitor, full curve, poor fit]",–
CC(=O)NC(C)(c1ccccc1)c1nc(-c2ccc(N(C)C)cc2)cs1 (configuration not stated),"inconclusive [inhibitor, partial curve, poor fit]",–
C=CCOc1cccc(C(=O)/C=C2/C(=O)Nc3ccccc32)c1,"inconclusive [inhibitor, single point]",–
CCc1ccc(CSc2nccn2-c2ccccc2)cc1,"inconclusive [inhibitor, partial curve]",–
COc1ccccc1C(=O)Nc1ccnn1C1CCN(C)CC1,inactive,–
C=C1C(=O)O[C@@H]2C[C@@H](C)[C@@H]3C4OC4C(=O)[C@@]3(C)[C@@H](O)[C@H]12 (some centres not stated),inactive,–
O=[N+]([O-])c1cc(S(=O)(=O)Nc2ccccc2)ccc1N1CCN(c2ccc(O)cc2)CC1,"inconclusive [inhibitor, partial curve]",–
